# Results published in paper PMC4336329 (PLoS ONE, 2015).
# Out of some 310,000 compounds screened, about 2,200 (0.71%) showed an effect of 50% or more. The effect is printed as a negative number. The list shows a part of the results.
# Biological target: human ether-à-go-go-related gene (hERG) potassium channel (human, UniProt Q12809)
# Test: primary screen, population patch clamp on CHO cells stably expressing hERG
# Chain of human ether-à-go-go-related gene (hERG) potassium channel (Q12809 whole entry, looked up): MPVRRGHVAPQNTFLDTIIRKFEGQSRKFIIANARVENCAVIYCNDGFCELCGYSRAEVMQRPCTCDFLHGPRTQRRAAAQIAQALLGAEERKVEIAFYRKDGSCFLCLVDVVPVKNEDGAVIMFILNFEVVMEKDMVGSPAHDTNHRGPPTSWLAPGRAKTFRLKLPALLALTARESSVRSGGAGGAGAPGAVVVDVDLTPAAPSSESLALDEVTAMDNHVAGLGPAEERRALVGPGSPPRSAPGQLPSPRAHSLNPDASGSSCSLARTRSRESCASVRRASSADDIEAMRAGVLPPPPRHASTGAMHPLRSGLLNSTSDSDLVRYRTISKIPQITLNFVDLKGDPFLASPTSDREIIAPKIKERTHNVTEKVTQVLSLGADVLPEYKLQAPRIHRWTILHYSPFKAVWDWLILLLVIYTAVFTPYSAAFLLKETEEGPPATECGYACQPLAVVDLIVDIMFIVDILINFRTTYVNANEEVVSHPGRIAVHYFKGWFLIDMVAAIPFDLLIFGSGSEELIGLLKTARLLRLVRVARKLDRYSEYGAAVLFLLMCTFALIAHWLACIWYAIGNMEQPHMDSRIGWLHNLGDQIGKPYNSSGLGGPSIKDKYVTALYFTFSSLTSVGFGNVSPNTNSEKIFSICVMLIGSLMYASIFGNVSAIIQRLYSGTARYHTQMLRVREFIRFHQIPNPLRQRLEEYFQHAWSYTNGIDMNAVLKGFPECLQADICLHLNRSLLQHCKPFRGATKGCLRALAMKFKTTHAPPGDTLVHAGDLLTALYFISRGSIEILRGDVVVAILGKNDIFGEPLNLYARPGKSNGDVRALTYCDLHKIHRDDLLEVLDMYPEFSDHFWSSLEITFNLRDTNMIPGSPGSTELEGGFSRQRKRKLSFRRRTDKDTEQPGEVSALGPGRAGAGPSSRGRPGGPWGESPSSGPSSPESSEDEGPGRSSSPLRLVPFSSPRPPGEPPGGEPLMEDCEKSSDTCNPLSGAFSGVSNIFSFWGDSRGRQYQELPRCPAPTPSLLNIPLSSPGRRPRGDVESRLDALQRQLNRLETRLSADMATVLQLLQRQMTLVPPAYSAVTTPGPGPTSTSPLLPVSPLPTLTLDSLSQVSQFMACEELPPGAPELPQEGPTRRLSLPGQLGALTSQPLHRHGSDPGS
row,Compound,"hERG current change (%, negative = inhibition) at 1uM"
1,COc1cc(NC(=S)N2CCCCC2C)c(OC)cc1Cl (centres unmarked),3.94%
2,Cc1ccc(S(=O)(=O)NCC(=O)N(CC(=O)NC2CCCCC2)CC2CCCO2)cc1 (centres unmarked),8.24%
3,Cc1nc(-c2ccc(Cl)cc2)sc1C(=O)CBr,5.52%
4,CCCCN(C)C(=O)c1cc2c(Cl)nc3ccccc3c2s1,12.3%
5,O=C(c1c(F)cccc1F)N1CCCc2ccccc21,16.9%
6,Cc1ccccc1OCCC(=O)Nc1ccc(S(=O)(=O)N(C)C2CCN(C)CC2)cc1,20.4%
7,COc1ccc(CC(=O)N(C)Cc2ccc(C(C)(C)C)cc2)cc1S(=O)(=O)N1CCOCC1,5.58%
8,CCC1C(=O)N=C(SCC(=O)Nc2ccc(C)cc2)N(c2ccccc2)C1=O (centres unmarked),10.2%
9,COC(=O)CCC/C=C1\SC[C@@H](NC(=O)c2ccccc2)C1NC(C)=O (some centres unmarked),12.5%
10,CC(=O)NCCC(=O)N(Cc1ccccc1)c1nc2c(C)cccc2s1,7.17%
11,Cc1cc(NC(=O)CSc2nc3ccccc3c(=O)n2CCCC(=O)NCc2ccco2)n[nH]1,4.18%
12,CCn1c(C(O)c2ccccc2)nc2ccccc21 (centres unmarked),9.49%
13,Cl.c1ccc(CNc2nc3ccccc3n2CCN2CCOCC2)nc1,10.1%
14,COc1ccccc1NC(=O)COn1nnc2ccc(S(=O)(=O)N3CCOCC3)cc21,9.73%
15,O=C(CSc1n[nH]c(=O)[nH]c1=O)Nc1ccc(C(=O)O)cc1,12.8%
16,c1cncc(-c2nc(NCc3cccs3)c3ccccc3n2)c1,8.51%
17,CC1(C)CC(C(CCN(Cc2ccccc2)C(=O)c2ccco2)c2ccc(F)cc2)CCO1 (centres unmarked),9.34%
18,Cc1cccc(C(=O)NC(=O)Nc2c(C)cc(C)nc2C)c1,17%
19,COc1ccc(NC(=O)C2CCCCN2S(=O)(=O)c2ccc(F)cc2)c(OC)c1 (centres unmarked),-0.017%
20,COc1cc(C(=S)N2CCOCC2)ccc1OC(=O)c1cc(OC)c(OC)c(OC)c1,19.2%
21,COc1ccc(C(=O)Nc2ccncc2)c(OC)c1,14.4%
22,COc1ccccc1NC(=O)CSc1ccc2nnc(-c3ccccn3)n2n1,9.85%
23,COc1ccc(OC)c(-n2c(O)c(/C=C3\C=Nc4ccccc43)c(=O)[nH]c2=O)c1,11.8%

row,Compound,"hERG current change (%, negative = inhibition) at 1uM"
1,O=C(Nc1ccc(F)cc1)c1oc2ccccc2c1NC(=O)C1CC1,2.98%
2,COc1ccc([N+](=O)[O-])cc1N(CC(=O)NCCSc1ccc(C)cc1)S(C)(=O)=O,-1.7%
3,COc1ccccc1OCCSc1nc2ccccc2n1CCC(=O)O,16.3%
4,CCOC(=O)C1CCCN(C(=O)c2cc(-c3ccc(C)cc3)on2)C1 (centres unmarked),-59.7%
5,CCCC(=O)Nc1ccc(C(=O)Nc2nnc(COCC)s2)cc1,13.7%
6,O=C(Nc1ccc(O)cc1)c1cc2n(n1)C(C(F)(F)F)CC(c1ccco1)N2 (centres unmarked),-1.55%
7,Cc1nnc(NC(=O)CSc2nnc(Cc3cccn3C)n2CCc2ccccc2)s1,3.48%
8,CC1CCCN(C(=O)C2CCN(S(=O)(=O)c3cccc4nonc34)CC2)C1 (centres unmarked),12.6%
9,Cc1nc(SCc2nc3ccccc3[nH]2)c2oc3ccccc3c2n1,14.9%
10,CC(=O)c1cc(-c2ccc(F)cc2)n(CC(=O)NCc2cccs2)c1C,-4.31%
11,COc1ccc(NC(=O)CN(C)CC(=O)Nc2ccc(Cl)c(S(=O)(=O)N(C)C)c2)cc1,0.0036%
12,CC1CN(S(=O)(=O)c2ccc(C(=O)Nc3nnc(-c4ccc5c(c4)CCCC5)o3)cc2)CC(C)O1 (centres unmarked),9.15%
13,Cc1nn(CC(=O)N2CCCCC2)c(=O)c2nn(-c3ccccc3)c(C)c12,14.2%
14,O=C(Cc1ccccc1Cl)NCc1cccnc1,18.6%
15,Nc1cc(C(F)(F)F)ccc1C(=O)O,10.2%
16,COc1cccc(CN2CCN(C(=O)c3cccc(OC)c3)CC2)c1.O=C(O)C(=O)O,15.3%
17,CC(OC(=O)c1ccco1)C(=O)NC1CCCCC1 (centres unmarked),9.98%
18,COc1ccc(S(=O)(=O)NCc2ccncc2)cc1NC(=O)c1ccccc1C,-8.51%
19,Cc1cccc(C)c1OCc1cc(C(=O)N2CCCC2c2nonc2C)no1 (centres unmarked),8.29%
20,O=C(Nc1ncccc1O)c1ccc2ccccc2c1,19.9%
21,Cc1onc(-c2ccccc2)c1C(=O)N1CCC(C)CC1,-2.72%
22,O=Nc1c(O)n(Cc2ccccc2)c2ccccc12,12.4%
23,COc1ccc(C)cc1NC(=O)c1nn(C)c(C(=O)Nc2cc(C)ccc2OC)c1[N+](=O)[O-],11.1%

row,Compound,"hERG current change (%, negative = inhibition) at 1uM"
1,O=C(Nc1ccc(NC(=O)c2ccccc2F)cn1)c1ccco1,13.5%
2,CN(C)Cc1c(C(=O)N/N=C/c2cccc(OCc3ccc(F)cc3)c2)nnn1-c1nonc1N,14.9%
3,CCOC(=O)c1c(NC(=O)c2cccnc2)sc(C)c1C,-3.1%
4,Cc1ccc(CNC(=O)c2ccc([N+](=O)[O-])o2)cc1,8.8%
5,Nc1ccc(C(=O)Nc2nccs2)cc1,16.1%
6,CCOc1ccc(OCC)c(NC(=O)CN2CCN(C(=O)c3ccco3)CC2)c1,-5.94%
7,OCCC1CN(Cc2ccon2)CCN1Cc1ccccc1 (centres unmarked),9.72%
8,Cc1ccsc1C(=O)OCC(=O)Nc1cccc(S(=O)(=O)N2CCOCC2)c1,0.283%
9,O=C(CSc1ccccc1)NCCCN1CCOCC1,8.44%
10,CCOC(=O)c1ccc(NC(=O)c2nc[nH]c2C(=O)NC)cc1,12.7%
11,O=C(CSCc1c(F)cccc1Cl)NCC1CCCO1 (centres unmarked),-1.83%
12,CCC(C)(C)NC(=O)COc1ccc(OCc2ccccc2)cc1,9.73%
13,Cn1c(=O)c(C=Nc2ccccc2)c(O)c2ccccc21,12.5%
14,CSc1nc(C)cc(NC(N)=O)n1,11.1%
15,CCC(=O)N1c2ccc(S(=O)(=O)CCC(=O)N3CCN(c4ccccc4)CC3)cc2CC1C (centres unmarked),16%
16,C=CCSc1nc(N)c(NC(=O)c2ccco2)c(=O)[nH]1,9.39%
17,CC1CCCC(C)N1C(=O)COC(=O)C1CCN(S(=O)(=O)c2ccc3c(c2)OCCO3)CC1 (centres unmarked),7.49%
18,COc1ccc(C(CC(=O)Nc2nccs2)C(C)C)cc1 (centres unmarked),10.9%
19,CC(C)CC(=O)Nc1cc(NC(=O)CC(C)C)cc(C(=O)NC(C)(C)C)c1,13%
20,CN(C)C(=O)c1ccc(NC(=O)c2ccccc2Sc2ccccc2C#N)cc1,13.4%
21,COc1cc(-c2nc(S(=O)(=O)c3ccc(Cl)cc3)c(N3CCOCC3)o2)cc(OC)c1OC,11.7%
22,COc1ccccc1Nc1nnc(SCC(=O)Nc2nc(-c3ccc(F)cc3)cs2)s1,18.4%
23,CCOC(=O)c1cn(Cc2cccc(C)c2)nn1,5.49%

row,Compound,"hERG current change (%, negative = inhibition) at 1uM"
1,CCOC(=O)c1sc(NC(=O)CC(C)c2ccccc2)nc1C (centres unmarked),13.4%
2,CCOc1ccc(N(CC(=O)NCc2ccc(F)cc2)S(=O)(=O)c2c(C)noc2C)cc1,0.252%
3,COc1ccc(OCCNc2c([N+](=O)[O-])c(=O)oc3ccccc23)cc1,14.6%
4,O=C1CS(=O)(=O)N(Cc2cccc(F)c2)c2ccc(Br)cc21,16.2%
5,COC(=O)c1sc(NC(=O)CSc2nncs2)c(C(=O)OC)c1C,6.2%
6,Cc1noc(C)c1CSc1nc2[nH]ncc2c(=O)n1-c1ccccc1,5.8%
7,COc1ccccc1-c1nn2c(C(F)(F)F)nnc2s1,11.6%
8,COCOc1cc(O)c2c(=O)c(OCOC)c(-c3ccc(OCOC)c(OCOC)c3)oc2c1,2.95%
9,COc1ccc(OC)c(NC(=O)CCCNC(=O)c2ccc(Cl)cc2)c1,4.49%
10,CCCN1CCC(=O)N([C@H](CSc2ccccc2)CC(C)C)CC1,-31.8%
11,Cc1ccc([N+](=O)[O-])cc1N=Cc1ccc(Br)s1,0.131%
12,Cc1ccc(NC2=CC(=O)C(=O)c3ccccc32)cc1,-0.518%
13,Cc1cc(/C=C(\C#N)C(=O)NCc2ccco2)c(C)n1-c1cccnc1,14.5%
14,COc1ccc(Cl)c2c1[nH]c1nc(SCc3ccccn3)nnc12,23.9%
15,Cc1cccc(C2N(c3ccc(F)cc3)C(=O)C3CCCN32)c1 (centres unmarked),-7.7%
16,c1ccc(NC2=NCCN2CC2CCCCCC2)cc1,4.78%
17,COc1cc(C(=O)NCc2nnc(SCC(=O)Nc3ccc4c(c3)OCO4)o2)cc(OC)c1OC,20.3%
18,CCCCOC(=O)c1ccc(NC(=O)c2c(OC)cccc2OC)cc1,13.3%
19,Nc1nonc1-n1nnc(C(=O)N/N=C/c2ccco2)c1CSc1ccccc1,11.9%
20,Cc1nc(S(=O)(=O)c2ccc(Cl)cc2Cl)nc2c1CCC2,19.3%
